# Measured values: the supplement of paper PMC8728848
# Some of the results follow.
# B1: F17fG (Escherichia coli), Q9RH91 (protein)
# chain: MTNFYKVFLAVFILVCCNISHAAVSFIGSTENDVGPSQGSYSSTHAMDNLPFVYNTGHNIGYQNANVWRISGGFCVGLDGKVDLPVVGSLDGQSIYGLTEEVGLLIWMGDTNYSRGTAMSGNSWENVFSGWCVGNYVSTQGLSVHVRPVILKRNSSAQYSVQKTSIGSIRMRPYNGSSAGSVQTTVNFSLNPFTLNDTVTSCRLLTPSAVNVSLAAISAGQLPSSGDEVVAGTTSLKLQCDAGVTVWATLTDATTPSNRSDILTLTGASTATGVGLRIYKNTDSTPLKFGPDSPVKGNENQWQLSTGTETSPSVRLYVKYVNTGEGINPGTVNGISTFTFSYQ
# Key:
# Test in all cases: glycan array binding signal (z-score within array); higher = stronger binding
# Settings in all cases: glycan notation: IUPAC condensed, linker removed
# [1] = target: GlcNAc(b1-3)Gal(b1-4)GlcNAc
# Method in brief: (§1)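 Negative Z-scores can be read as non-binding. The Z-score is calculated within each array and then averaged across arrays of one protein sequence at different concentrations or buffers and across linkers. Arrays, 3228 in all, were curated from the Consortium for Functional Glycomics database and kept only where the protein sequence was available.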
# [2] = target: GlcNAc(b1-3)Gal(b1-4)GlcNAc(b1-3)Gal(b1-4)GlcNAc
# Method in brief: as §1
# GlcNAc(b1-3)GalNAc = target: GlcNAc(b1-3)GalNAc
# Method in brief: as §1
# [3] = target: GlcNAc(b1-3)[GlcNAc(b1-6)]Gal(b1-4)GlcNAc
# Method in brief: as §1
# [4] = target: GlcNAc(b1-3)[GlcNAc(b1-6)]GalNAc
# Method in brief: as §1
# [5] = target: GlcNAc(b1-3)[GlcNAc(b1-6)]GlcNAc(b1-4)GlcNAc
# Method in brief: as §1
# [6] = target: GlcNAc(b1-4)Gal(b1-4)GlcNAc
# Method in brief: as §1
# [7] = target: GlcNAc(b1-4)GlcNAc(b1-4)GlcNAc
# Method in brief: as §1
# [8] = target: GlcNAc(b1-4)GlcNAc(b1-4)GlcNAc(b1-4)GlcNAc(b1-4)GlcNAc
# Method in brief: as §1
# [9] = target: GlcNAc(b1-4)GlcNAc(b1-4)GlcNAc(b1-4)GlcNAc(b1-4)GlcNAc(b1-4)GlcNAc
# Method in brief: as §1
# [10] = target: GlcNAc(b1-4)[GlcNAc(b1-6)]GalNAc
# Method in brief: as §1
# [11] = target: GlcNAc(b1-6)Gal(b1-4)GlcNAc
# Method in brief: as §1
# GlcNAc(b1-6)GalNAc = target: GlcNAc(b1-6)GalNAc
# Method in brief: as §1
# Kdn(a2-3)Gal(b1-3)GlcNAc = target: Kdn(a2-3)Gal(b1-3)GlcNAc
# Method in brief: as §1
# Kdn(a2-3)Gal(b1-4)GlcNAc = target: Kdn(a2-3)Gal(b1-4)GlcNAc
# Method in brief: as §1
# [12] = target: Man(a1-2)Man(a1-2)Man(a1-3)Man
# Method in brief: as §1
# [13] = target: Man(a1-2)Man(a1-2)Man(a1-6)[Man(a1-3)]Man
# Method in brief: as §1
# Man(a1-2)Man(a1-3)Man = target: Man(a1-2)Man(a1-3)Man
# Method in brief: as §1
# [14] = target: Man(a1-2)Man(a1-3)[Man(a1-2)Man(a1-6)]Man
# Method in brief: as §1
# [15] = target: Man(a1-2)Man(a1-3)[Man(a1-2)Man(a1-6)]Man(a1-6)[Man(a1-2)Man(a1-2)Man(a1-3)]Man(b1-4)GlcNAc(b1-4)GlcNAc
# Method in brief: as §1
# [16] = target: Man(a1-2)Man(a1-3)[Man(a1-6)]Man(a1-6)[Man(a1-2)Man(a1-3)]Man(b1-4)GlcNAc(b1-4)GlcNAc
# Method in brief: as §1
# [17] = target: Man(a1-2)Man(a1-6)[Man(a1-3)]Man(a1-6)[Man(a1-2)Man(a1-2)Man(a1-3)]Man(b1-4)GlcNAc(b1-4)GlcNAc
# Method in brief: as §1
# Man(a1-3)[Man(a1-6)]Man = target: Man(a1-3)[Man(a1-6)]Man
# Method in brief: as §1
# [18] = target: Man(a1-3)[Man(a1-6)]Man(a1-6)[Man(a1-2)Man(a1-3)]Man(b1-4)GlcNAc(b1-4)GlcNAc
# Method in brief: as §1
# [19] = target: Man(a1-3)[Man(a1-6)]Man(a1-6)[Man(a1-3)]Man(b1-4)GlcNAc(b1-4)GlcNAc
# Method in brief: as §1
# [20] = target: Man(a1-3)[Man(a1-6)]Man(b1-4)GlcNAc(b1-4)GlcNAc
# Method in brief: as §1
# Man(b1-4)GlcNAc = target: Man(b1-4)GlcNAc
# Method in brief: as §1
# Neu5Ac(a2-3)Gal = target: Neu5Ac(a2-3)Gal
# Method in brief: as §1
# [21] = target: Neu5Ac(a2-3)Gal(b1-3)GalNAc
# Method in brief: as §1
# [22] = target: Neu5Ac(a2-3)Gal(b1-3)GalNAc(b1-3)Gal(a1-4)Gal(b1-4)Glc
# Method in brief: as §1
# [23] = target: Neu5Ac(a2-3)Gal(b1-3)GalNAc(b1-3)Gal(b1-4)GlcNAc
# Method in brief: as §1
# [24] = target: Neu5Ac(a2-3)Gal(b1-3)GalNAc(b1-4)[Neu5Ac(a2-3)]Gal(b1-4)Glc
# Method in brief: as §1
# [25] = target: Neu5Ac(a2-3)Gal(b1-3)GalNAc6S
# Method in brief: as §1
# [26] = target: Neu5Ac(a2-3)Gal(b1-3)GlcNAc
# Method in brief: as §1
# [27] = target: Neu5Ac(a2-3)Gal(b1-3)GlcNAc6S
# Method in brief: as §1
# [28] = target: Neu5Ac(a2-3)Gal(b1-3)[Fuc(a1-4)]GlcNAc
# Method in brief: as §1
# [29] = target: Neu5Ac(a2-3)Gal(b1-3)[Fuc(a1-4)]GlcNAc(b1-3)Gal(b1-4)[Fuc(a1-3)]GlcNAc
# Method in brief: as §1
# [30] = target: Neu5Ac(a2-3)Gal(b1-3)[Neu5Ac(a2-3)Gal(b1-4)]GlcNAc
# Method in brief: as §1
binder,measurement,setting,value
B1,glycan array binding signal (z-score),[1],2.55
same,glycan array binding signal (z-score),[2],0.224
same,glycan array binding signal (z-score),GlcNAc(b1-3)GalNAc,1.77
same,glycan array binding signal (z-score),[3],6.97
same,glycan array binding signal (z-score),[4],1.06
same,glycan array binding signal (z-score),[5],0.169
same,glycan array binding signal (z-score),[6],1
same,glycan array binding signal (z-score),[7],0.055
same,glycan array binding signal (z-score),[8],-0.192
same,glycan array binding signal (z-score),[9],-0.266
same,glycan array binding signal (z-score),[10],3.53
same,glycan array binding signal (z-score),[11],0.025
same,glycan array binding signal (z-score),GlcNAc(b1-6)GalNAc,0.437
same,glycan array binding signal (z-score),Kdn(a2-3)Gal(b1-3)GlcNAc,-0.176
same,glycan array binding signal (z-score),Kdn(a2-3)Gal(b1-4)GlcNAc,-0.234
same,glycan array binding signal (z-score),[12],-0.316
same,glycan array binding signal (z-score),[13],-0.391
same,glycan array binding signal (z-score),Man(a1-2)Man(a1-3)Man,-0.342
same,glycan array binding signal (z-score),[14],-0.357
same,glycan array binding signal (z-score),[15],-0.304
same,glycan array binding signal (z-score),[16],-0.263
same,glycan array binding signal (z-score),[17],-0.322
same,glycan array binding signal (z-score),Man(a1-3)[Man(a1-6)]Man,-0.298
same,glycan array binding signal (z-score),[18],-0.319
same,glycan array binding signal (z-score),[19],-0.33
same,glycan array binding signal (z-score),[20],-0.241
same,glycan array binding signal (z-score),Man(b1-4)GlcNAc,-0.319
same,glycan array binding signal (z-score),Neu5Ac(a2-3)Gal,-0.228
same,glycan array binding signal (z-score),[21],-0.237
same,glycan array binding signal (z-score),[22],-0.282
same,glycan array binding signal (z-score),[23],-0.221
same,glycan array binding signal (z-score),[24],-0.169
same,glycan array binding signal (z-score),[25],-0.074
same,glycan array binding signal (z-score),[26],-0.22
same,glycan array binding signal (z-score),[27],-0.26
same,glycan array binding signal (z-score),[28],-0.228
same,glycan array binding signal (z-score),[29],0.311
same,glycan array binding signal (z-score),[30],-0.105
